{"source": "the BET-seq Pho4 binding data (Le et al. 2018)", "note": "Some of the results follow. The energies were worked out here from pooled read counts, against the library average; single values are noisy."}
{"target": "T1, Pho4 (S. cerevisiae) (UniProt P07270)", "T1 sequence": "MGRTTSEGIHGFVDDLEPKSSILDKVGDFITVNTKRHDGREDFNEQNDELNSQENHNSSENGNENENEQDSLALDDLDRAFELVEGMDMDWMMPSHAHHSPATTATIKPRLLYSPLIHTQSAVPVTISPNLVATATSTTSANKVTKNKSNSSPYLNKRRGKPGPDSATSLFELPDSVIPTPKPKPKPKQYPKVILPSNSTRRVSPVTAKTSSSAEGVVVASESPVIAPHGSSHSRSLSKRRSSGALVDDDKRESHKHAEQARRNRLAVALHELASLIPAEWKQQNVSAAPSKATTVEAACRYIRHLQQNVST", "test": "relative binding free energy (BET-seq); higher = weaker binding", "settings": "reference: library average", "units": {"relative binding free energy": "kcal/mol"}}
{"sequence": "CTTGGCACGTGGATGT", "relative binding free energy": -0.03}
{"sequence": "TTTCACACGTGTAATT", "relative binding free energy": 0.23}
{"sequence": "TTAGTCACGTGACTTA", "relative binding free energy": 0.18}
{"sequence": "AGAGTCACGTGTGGTG", "relative binding free energy": 0.04}
{"sequence": "ATGGTCACGTGTCCAT", "relative binding free energy": 0.23}
{"sequence": "GTATGCACGTGATAGT", "relative binding free energy": 0.15}
{"sequence": "TATGGCACGTGCATGG", "relative binding free energy": -0.2}
{"sequence": "CGAAGCACGTGGGTGG", "relative binding free energy": -0.18}
{"sequence": "AGTAGCACGTGGTCTG", "relative binding free energy": -0.21}
{"sequence": "TCTTTCACGTGGTGAT", "relative binding free energy": 0.33}
{"sequence": "TACATCACGTGCGGTG", "relative binding free energy": 0.19}
{"sequence": "ATAATCACGTGGGTAT", "relative binding free energy": -0.03}
{"sequence": "AGTCGCACGTGTTATG", "relative binding free energy": -0.12}
{"sequence": "GGATTCACGTGTGTGT", "relative binding free energy": 0.37}
{"sequence": "GTTGTCACGTGGTTCG", "relative binding free energy": 0.17}
{"sequence": "GTACGCACGTGAATGG", "relative binding free energy": 0.23}
{"sequence": "TCTGGCACGTGTGAGC", "relative binding free energy": 0.16}
{"sequence": "TTCTTCACGTGGACGG", "relative binding free energy": 0.29}
{"sequence": "GTGGACACGTGGTAGG", "relative binding free energy": -0.04}
{"sequence": "GGGCGCACGTGTAGGC", "relative binding free energy": -0.09}
{"sequence": "AGGGGCACGTGAAGAT", "relative binding free energy": 0.09}
{"sequence": "CATATCACGTGTTATT", "relative binding free energy": 0.15}
{"sequence": "GGAACCACGTGGTGGT", "relative binding free energy": -0.16}
{"sequence": "ATTTGCACGTGAATGC", "relative binding free energy": 0.21}
{"sequence": "ATTAACACGTGATGGG", "relative binding free energy": 0.18}
{"sequence": "CGATGCACGTGAGCGT", "relative binding free energy": 0.31}
{"sequence": "TCTGGCACGTGGTTAT", "relative binding free energy": -0.05}
{"sequence": "CTTGGCACGTGGTGGG", "relative binding free energy": -0.08}
{"sequence": "TACGACACGTGAGGGT", "relative binding free energy": 0.13}
{"sequence": "TTATCCACGTGGGATA", "relative binding free energy": -0.06}
{"sequence": "TGTAGCACGTGTAGTA", "relative binding free energy": -0.02}
{"sequence": "TCAGGCACGTGTGGGC", "relative binding free energy": 0}
{"sequence": "GTTAACACGTGTCATG", "relative binding free energy": 0.06}
{"sequence": "AGATTCACGTGTGATG", "relative binding free energy": 0.22}
{"sequence": "GTTATCACGTGGAGGT", "relative binding free energy": 0.2}
{"sequence": "TGCGACACGTGCGTGG", "relative binding free energy": -0.04}
{"sequence": "CTGGGCACGTGATGCG", "relative binding free energy": -0.08}
{"sequence": "AGGGTCACGTGGGCAC", "relative binding free energy": 0.02}
{"sequence": "GCTGTCACGTGAATTG", "relative binding free energy": 0.24}
{"sequence": "GAAGTCACGTGAGATG", "relative binding free energy": 0.37}
{"sequence": "GTGCACACGTGGATTG", "relative binding free energy": 0.05}
{"sequence": "TATTCCACGTGGCTTT", "relative binding free energy": 0.06}
{"sequence": "AGAGTCACGTGAGTCT", "relative binding free energy": 0.32}
{"sequence": "TAAGGCACGTGTAGGG", "relative binding free energy": 0.01}
{"sequence": "AAATACACGTGGGCGT", "relative binding free energy": -0.04}
{"sequence": "ATTTTCACGTGATCAT", "relative binding free energy": 0.43}
{"sequence": "GTAGTCACGTGTAGGG", "relative binding free energy": 0.24}
{"sequence": "TTTTGCACGTGCTTGA", "relative binding free energy": 0.02}
{"sequence": "GGTGTCACGTGCAGCA", "relative binding free energy": 0.13}
{"sequence": "TTTCGCACGTGTAGGG", "relative binding free energy": 0.12}
{"sequence": "AAAAGCACGTGGGTAT", "relative binding free energy": -0.18}
{"sequence": "GGAAGCACGTGGTGTG", "relative binding free energy": -0.26}
{"sequence": "GGGCCCACGTGTGGTG", "relative binding free energy": -0.1}
{"sequence": "AACGGCACGTGTAGGT", "relative binding free energy": -0.02}
{"sequence": "CTAGTCACGTGTGTTT", "relative binding free energy": 0.21}
{"sequence": "TTTCTCACGTGTTTAA", "relative binding free energy": 0.14}
{"sequence": "TTCCGCACGTGTTTTG", "relative binding free energy": -0.01}
{"sequence": "GGGTCCACGTGCTGTT", "relative binding free energy": 0.05}
{"sequence": "AAGTTCACGTGTGATC", "relative binding free energy": 0.43}
{"sequence": "TTTGACACGTGGCGGT", "relative binding free energy": -0.13}
{"sequence": "ATGGGCACGTGGCTCT", "relative binding free energy": -0.13}
{"sequence": "ATTAGCACGTGAGTGC", "relative binding free energy": 0.08}
{"sequence": "TAGGTCACGTGGATCG", "relative binding free energy": -0.05}
{"sequence": "TATTGCACGTGGACAG", "relative binding free energy": 0.01}
{"sequence": "GTGGCCACGTGGAGAA", "relative binding free energy": 0.02}
{"sequence": "GTGCACACGTGGTTAT", "relative binding free energy": -0.02}
{"sequence": "CTGCGCACGTGTGTGG", "relative binding free energy": -0.15}
{"sequence": "TCAGTCACGTGCGTGG", "relative binding free energy": -0.14}
{"sequence": "TTTGTCACGTGCGGGA", "relative binding free energy": 0.05}
{"sequence": "TATTTCACGTGTACGG", "relative binding free energy": 0.11}
{"sequence": "CGCGGCACGTGTTAGT", "relative binding free energy": -0.06}
{"sequence": "GGCAACACGTGGGGGA", "relative binding free energy": -0.15}
{"sequence": "TTTACCACGTGTGAGG", "relative binding free energy": 0.01}
{"sequence": "ATTTGCACGTGAGGCG", "relative binding free energy": 0.06}
{"sequence": "TGCGCCACGTGGCGGG", "relative binding free energy": -0.27}
{"sequence": "TGTAACACGTGAAGTA", "relative binding free energy": 0.29}
{"sequence": "ATCGGCACGTGGGTAT", "relative binding free energy": -0.19}
{"sequence": "AAGTTCACGTGAGGTT", "relative binding free energy": 0.5}
{"sequence": "AGGCACACGTGGTGTT", "relative binding free energy": -0.14}
{"sequence": "TTGTACACGTGATGGA", "relative binding free energy": 0.14}
{"sequence": "TGTGTCACGTGGTGAC", "relative binding free energy": -0.01}
{"sequence": "TTCGTCACGTGCAGGT", "relative binding free energy": 0.08}
{"sequence": "AAACGCACGTGGGTGT", "relative binding free energy": -0.35}
{"sequence": "GGATTCACGTGGCCTG", "relative binding free energy": 0.18}
{"sequence": "CTTATCACGTGTAGGA", "relative binding free energy": 0.26}
{"sequence": "TTATTCACGTGGGAAT", "relative binding free energy": 0.29}
{"sequence": "GGTGGCACGTGCTTTG", "relative binding free energy": -0.13}
{"sequence": "TAGAGCACGTGCGGTG", "relative binding free energy": -0.12}
{"sequence": "GGCGGCACGTGAGATT", "relative binding free energy": 0.29}
{"sequence": "TTAGACACGTGTGTCA", "relative binding free energy": 0.01}
{"sequence": "AGGGTCACGTGTCTTT", "relative binding free energy": 0.24}
{"sequence": "GGATGCACGTGGCGGA", "relative binding free energy": -0.06}
{"sequence": "TATGTCACGTGTCGGA", "relative binding free energy": -0.01}
{"sequence": "AGATTCACGTGGTGAT", "relative binding free energy": 0.24}
{"sequence": "GGTAGCACGTGGGATG", "relative binding free energy": -0.21}
{"sequence": "GGCTTCACGTGTTTTA", "relative binding free energy": 0.2}
{"sequence": "GGTTACACGTGGAAGG", "relative binding free energy": 0.23}
{"sequence": "TGGATCACGTGCGCGT", "relative binding free energy": 0.04}
{"sequence": "TTTATCACGTGTCGCT", "relative binding free energy": 0.16}
{"sequence": "GTTCTCACGTGGGTGC", "relative binding free energy": 0.12}
{"sequence": "GTATTCACGTGTGGGA", "relative binding free energy": 0.33}
{"sequence": "TTATACACGTGTGGTA", "relative binding free energy": 0.04}
{"sequence": "GGGTACACGTGGATGT", "relative binding free energy": 0.16}
{"sequence": "TTGACCACGTGGTTTG", "relative binding free energy": -0.08}
{"sequence": "TTAGACACGTGGCTAT", "relative binding free energy": -0.01}
{"sequence": "GTTAGCACGTGTTGAG", "relative binding free energy": 0.09}
{"sequence": "GATAACACGTGTGGGT", "relative binding free energy": 0.11}
{"sequence": "CAGTTCACGTGTGCGG", "relative binding free energy": 0.35}
{"sequence": "AGGCTCACGTGGCGGG", "relative binding free energy": 0.15}
{"sequence": "GCGGCCACGTGGGGTA", "relative binding free energy": -0.2}
{"sequence": "GTGGACACGTGGTTTT", "relative binding free energy": 0.03}
{"sequence": "TGTAGCACGTGTATGG", "relative binding free energy": 0}
{"sequence": "TTTATCACGTGGTAAG", "relative binding free energy": 0.02}
{"sequence": "AGGAACACGTGTCGTG", "relative binding free energy": -0.01}
{"sequence": "GAGGACACGTGGGTGT", "relative binding free energy": -0.13}
